# Screen size: about 310,000 compounds; about 2,200 (0.71%) showed an effect of 50% or more. Effects have a minus sign here. Some of the results follow.
# Molecular target: human ether-à-go-go-related gene (hERG) potassium channel (human, UniProt Q12809)
# Test: primary screen, population patch clamp on CHO cells stably expressing hERG
# human ether-à-go-go-related gene (hERG) potassium channel, sequence (Q12809 whole entry, looked up): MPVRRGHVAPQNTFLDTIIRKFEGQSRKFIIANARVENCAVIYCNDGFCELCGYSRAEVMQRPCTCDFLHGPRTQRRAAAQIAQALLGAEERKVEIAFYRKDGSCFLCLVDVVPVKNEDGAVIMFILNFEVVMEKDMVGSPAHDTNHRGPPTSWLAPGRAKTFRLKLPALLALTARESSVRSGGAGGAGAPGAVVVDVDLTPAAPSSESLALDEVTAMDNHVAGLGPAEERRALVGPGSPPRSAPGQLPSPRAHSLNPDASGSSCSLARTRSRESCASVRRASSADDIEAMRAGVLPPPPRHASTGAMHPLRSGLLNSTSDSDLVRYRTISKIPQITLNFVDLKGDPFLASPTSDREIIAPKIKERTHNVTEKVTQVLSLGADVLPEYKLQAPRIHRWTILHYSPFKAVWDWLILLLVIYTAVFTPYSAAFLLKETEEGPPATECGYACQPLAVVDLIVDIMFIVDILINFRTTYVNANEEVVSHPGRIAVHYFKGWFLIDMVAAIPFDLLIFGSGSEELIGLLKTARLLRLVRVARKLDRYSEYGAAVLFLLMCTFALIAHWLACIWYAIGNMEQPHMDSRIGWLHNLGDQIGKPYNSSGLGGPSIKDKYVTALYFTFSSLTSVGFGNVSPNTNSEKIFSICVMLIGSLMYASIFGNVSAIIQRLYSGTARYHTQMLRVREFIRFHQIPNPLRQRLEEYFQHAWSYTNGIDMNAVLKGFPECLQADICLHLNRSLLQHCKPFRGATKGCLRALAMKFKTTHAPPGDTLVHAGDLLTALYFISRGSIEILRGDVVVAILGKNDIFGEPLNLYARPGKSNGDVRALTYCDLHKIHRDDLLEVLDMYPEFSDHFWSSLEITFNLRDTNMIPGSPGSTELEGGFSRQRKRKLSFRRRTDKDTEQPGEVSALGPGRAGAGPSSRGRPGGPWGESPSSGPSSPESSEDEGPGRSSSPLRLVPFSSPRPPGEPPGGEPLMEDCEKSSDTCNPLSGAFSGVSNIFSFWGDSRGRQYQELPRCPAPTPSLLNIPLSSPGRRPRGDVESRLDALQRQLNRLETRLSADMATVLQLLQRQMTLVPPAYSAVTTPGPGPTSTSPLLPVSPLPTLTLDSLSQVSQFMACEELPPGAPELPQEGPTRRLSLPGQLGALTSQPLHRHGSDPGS
row,SMILES,"hERG current change (%, negative = inhibition) at 1uM [%]"
1,CN(C)S(=O)(=O)c1ccc(C(=O)NCCOc2ccc(F)cc2)cc1,0.678
2,CCCN(C(=O)C1CSC2(C)CCC(=O)N12)c1c(N)n(Cc2ccccc2)c(=O)[nH]c1=O (stereo not shown),19.4
3,Clc1ccc2c(c1)C(c1ccccc1Cl)=NCc1nnc(Br)n1-2.c1ccccc1,2.57
4,CCc1cccc(C)c1NC(=O)COC(=O)C1CCN(S(=O)(=O)c2ccccc2)CC1,20.2
5,CCc1ccccc1NC(=O)/C(C#N)=C\c1ccc(Sc2ccccc2)o1,-7.2
6,O=C(CSc1nnc(-c2cccs2)n1Cc1ccco1)Nc1ccc2c(c1)OCO2,0.29
7,CCN(CC)c1ccc(N=Cc2ccc([N+](=O)[O-])o2)cc1,1.1
8,C=CCNC(=S)N(CC)c1cccc2ccccc12,2.02
9,Cc1nc(N2CCCC2)c2ccsc2n1,8.87
10,COc1ccc(NC(=O)CN2CCN(Cc3ccccc3)CC2)cc1,-25.8
11,COC(=O)Cn1cnc2c1c(=O)n(C)c(=O)n2C,5.91
12,O=C(N/N=C/c1ccc(-c2ccc(S(=O)(=O)Nc3ncccn3)cc2)o1)c1cc2ccccc2cc1O,17.6
13,CCC(NC(=O)c1ccccc1NC(=O)c1ccc(OC)cc1)C(=O)N1CCCC1 (stereo not shown),10.9
14,CCCC(=O)Nc1ccc(NC(=O)c2cccc(OC)c2)cn1,13
15,O=C(O)CCn1c(SCCOc2ccccc2F)nc2ccccc21,10.8
16,CCOc1ccc(S(=O)(=O)Nc2ccc3c(c2)c2c(n3S(=O)(=O)c3ccc(OCC)cc3)CCCC2=O)cc1,13.9
17,Cc1ccccc1C(=O)N1CCC(C(=O)Nc2ccc(S(=O)(=O)N3CCOCC3)cc2)CC1,8.83
18,CC(Nc1ccccc1)c1cc(Cl)ccc1O (stereo not shown),5.5
19,COc1ccc(-c2[nH]c(-c3cc(OC)c4c(c3)OCO4)nc2-c2ccccc2)cc1,-4.82
20,CN(C)c1ccc(S(=O)(=O)N2CCCCC2)cc1NC(=O)C1CSC2(C)CCC(=O)N12 (stereo not shown),6.62
21,COc1ccc(/C=N/NC(=O)c2cccnc2)c2ccccc12,15.8
22,Cc1ccc(N(CC(=O)Nc2c(C)cccc2C)S(C)(=O)=O)cc1,16.2

row,SMILES,"hERG current change (%, negative = inhibition) at 1uM [%]"
1,Cc1cccc(NC(=O)c2ccc(OC3CSC3)cc2)c1,16.1
2,COc1ccc([N+](=O)[O-])cc1NC(=O)c1cn(-c2ccc(C)c(C)c2)c(=O)c2ccccc12,9.63
3,CCCCC(=O)NC(N1CCCCC1)C(Cl)(Cl)Cl (stereo not shown),13.2
4,Cc1cccc(NC(=O)CCNS(=O)(=O)c2ccc3[nH]c(=O)oc3c2)c1,-3.97
5,Oc1ccccc1C1CC(c2cccs2)=NC(c2ccc(Cl)cc2)N1 (stereo not shown),17.6
6,COc1cccc(C2CC(c3cccs3)=NN2S(C)(=O)=O)c1 (stereo not shown),7.15
7,O=C(NC1CCCC1)C(NS(=O)(=O)c1cccc2nsnc12)c1ccccc1 (stereo not shown),6.24
8,Cc1cccc(-c2nnc(SCC#N)n2C)c1,9.24
9,CC12CCC(C(=O)NC(c3ccccc3)c3ccccc3)(OC1=O)C2(C)C (stereo not shown),5.02
10,CCOCCCNC(=O)c1cc2c(-c3ccc(Cl)cc3)nn(C)c2s1,11.7
11,CCCC(=O)c1cn(CC(=O)OC)c2ccccc12,14.5
12,O=C(CCc1ccccc1)NCCC1=CCCCC1,-0.978
13,CCOC(=O)c1c(C)oc2c(CC(=O)c3ccccc3)c(Cl)c(O)c(O)c12,-0.111
14,Cc1nn(Cc2ccc(Cl)cc2Cl)c(Cl)c1C(=O)NC1CCCc2ccccc21 (stereo not shown),4.9
15,COc1ccc(S(=O)(=O)N2CCOC2CNC(=O)C(=O)NCc2ccncc2)cc1 (stereo not shown),14
16,CCCCOc1ccc(-n2nc(C)cc2C)nn1,-5.38
17,O=C(CC(C(=O)O)c1ccccc1)Nc1cccc2ccccc12 (stereo not shown),14.1
18,CCOC(=O)C1CCN(C(=O)c2cccs2)CC1,13
19,Cc1cc(C)nc(NC(N)=S)n1,16.2
20,CC(C)COc1cccc(C(=O)Nc2ccc(N3CCOCC3)cc2N2CCOCC2)c1,2.09
21,Cc1cc(NC(=O)c2c(F)cccc2F)n(-c2nc3ccccc3[nH]2)n1,13.4
22,CCc1ccccc1NC(=O)Nc1cccs1,12.6

row,SMILES,"hERG current change (%, negative = inhibition) at 1uM [%]"
1,Cc1nn(C)c(C)c1-c1c(C#N)c(N)nc2c1CCCCCC2,1.53
2,CC1=C(C(=O)N2CCCC(C(=O)c3cccc4ccccc34)C2)OCCO1 (stereo not shown),24.9
3,Clc1cccc(Cl)c1CSc1cc2c(nn1)-c1ccccc1CC2,15.6
4,CN(C)CCN(CC1CCCN(Cc2ccccc2F)C1)C(=O)Cc1ccc(F)c(F)c1 (stereo not shown),4.74
5,COc1ccc(N(CC(=O)N2CCc3ccccc3C2)S(C)(=O)=O)cc1OC,-4.06
6,CC(=O)NCCC(=O)Nc1cc(S(=O)(=O)N2CCCCC2)ccc1Oc1ccccc1,-28.9
7,O=S(=O)(N/N=C/c1ccc(N2CCOCC2)cc1)c1ccc(Br)cc1,11.6
8,Cc1ccc(SC[C@H](C)CN2CC[C@H](C(C)(C)C)CCC2=O)cc1,0.221
9,COc1ccc(CC(=O)Nc2ccc(C(=O)NC(C)(C)C)cc2)cc1OC,2.58
10,Cc1cc(-n2c(=O)c(C#N)cc3c(=O)n4ccccc4nc32)no1,12.5
11,Cc1c(-c2ccc(Cl)cc2)[n+](=O)c(-c2ccccc2)cn1[O-],10.3
12,CCCCOC(=O)C1=C(C)NC(=O)NC1c1cccc([N+](=O)[O-])c1 (stereo not shown),6.45
13,O=C1/C(=C/c2ccco2)SC(=S)N1CCC(=O)N1CCCCC1CCO (stereo not shown),13
14,Nc1c(N(CCC2=CCCCC2)C(=O)c2ccco2)c(=O)[nH]c(=O)n1Cc1ccccc1,26
15,COc1cccc(-c2cc(C(F)(F)F)nc(-n3cncn3)n2)c1,-19.8
16,COCCCNC(=O)CCN1N=C(c2ccccc2)CCC1=O,13.8
17,COc1ccc(NC(=O)Cc2ccsc2)c(OC)c1,4.97
18,O=C(NCCCCc1ccccc1)C1CC(c2cc(C(F)(F)F)cc(C(F)(F)F)c2)=NO1 (stereo not shown),14.1
19,O=C(NCc1ccco1)c1cc([N+](=O)[O-])cc([N+](=O)[O-])c1,-0.528
20,COc1ccccc1OCC(=O)Nc1oc(-c2ccccc2)c(-c2ccccc2)c1C#N,6.3
21,O=C(NCc1ccccc1F)C1CCCN(c2cnccn2)C1 (stereo not shown),10.5
22,NC(=O)c1ccc(C2SCC(=O)N2Cc2ccccc2)cc1 (stereo not shown),8.82

row,SMILES,"hERG current change (%, negative = inhibition) at 1uM [%]"
1,O=[N+]([O-])c1ccc2[nH]c(O)c(N=NC3CCS(=O)(=O)C3)c2c1 (stereo not shown),14.3
2,CC(NC(=O)c1ccccc1)c1nnc(SCc2nc3ccccc3c(=O)[nH]2)n1C (stereo not shown),17
3,CC(=O)c1ccc(C(=O)Nc2ccc3c(c2)C(=O)NC3=O)cc1,12.4
4,CC(C)c1onc(C(=O)N2CCCCC2)c1[N+](=O)[O-],6.87
5,COc1ccc(NS(=O)(=O)c2ccc(O)c(C(=O)OCC(=O)Nc3ccc4c(c3)OCCO4)c2)cc1,11.6
6,CCCCSc1nc(C)nc2c1c(=O)n(C)c(=O)n2C,11.2
7,CN(c1ccccc1)S(=O)(=O)c1ccc(Cl)c(C(=O)Nc2ccc(N3CCOCC3)cc2)c1,11.5
8,CNC(=O)c1sccc1Oc1ccc(F)cc1[N+](=O)[O-],16.9
9,COc1ccc(-c2ccoc2)cc1[C@H]1[C@H]2C=CC[C@@H](C)[C@@H]2C(=O)N1Cc1ccccc1,9.05
10,O=C(NC1CCCCC1)N(Cc1cc2cc3c(cc2[nH]c1=O)OCCO3)C1CCCCC1,-4.63
11,CCCNC(=O)COC(=O)/C(C#N)=C/c1cc(C)n(CCC)c1C,9.82
12,CN(C)S(=O)(=O)c1cccc(NC(=O)COC(=O)c2cc(=O)[nH]c(=O)[nH]2)c1,9.41
13,CCCCCn1nc(C(=O)OCC(=O)c2c(N)n(C)c(=O)n(C)c2=O)c2ccccc2c1=O,5.72
14,COc1cc(OC)c(C(=O)N(CCc2ccccc2)Cc2ccccc2)cc1OC,-0.9
15,COc1ccc(OC)c(S(=O)(=O)N/N=C(/C)c2ccc3c(c2)OCO3)c1,-2.83
16,C/C=C1/CN2C3CC1C(CO)(C(=O)OC)C2Cc1c3n(C)c2ccccc12 (stereo not shown),10.1
17,O=C(/C=C/c1ccc2c(c1)OCO2)c1ccc(F)cc1,14.7
18,O=C(CSc1nnc(-c2ccccc2)n1-c1ccccc1)c1cccs1,6.55
19,COC(=O)CSC1=C(C#N)C(c2ccc(F)cc2)CC(=O)N1 (stereo not shown),11.9
20,COc1cc(C)nc(N2CCC(C(=O)NCC3CCCO3)CC2)n1 (stereo not shown),4.28
21,c1ccc2nc3c(cc2c1)CCCCC3,6.14
22,Cc1ccc(CCC(=O)Nc2ccc(C)c(C)c2)o1,-10.3

# Reference: paper PMC4336329 (PLoS ONE, 2015)
